# Test results as given in the BET-seq Pho4 binding data (Le et al. 2018).
# Some of the results follow. The energies were worked out here from pooled read counts, against the library average; single values are noisy.
# Target: T1, Pho4 (S. cerevisiae) (UniProt P07270)
# T1 sequence: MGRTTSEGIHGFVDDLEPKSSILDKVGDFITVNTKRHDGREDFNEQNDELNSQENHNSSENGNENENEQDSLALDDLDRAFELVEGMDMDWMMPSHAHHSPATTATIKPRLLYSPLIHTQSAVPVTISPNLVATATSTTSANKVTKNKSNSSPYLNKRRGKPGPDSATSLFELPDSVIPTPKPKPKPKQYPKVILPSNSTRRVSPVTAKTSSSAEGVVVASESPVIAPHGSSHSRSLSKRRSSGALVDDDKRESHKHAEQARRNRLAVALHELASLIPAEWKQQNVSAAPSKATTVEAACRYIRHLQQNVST
# Test: relative binding free energy (BET-seq); higher = weaker binding
# Conditions: reference: library average
row,Sequence,relative binding free energy
1,TACTTCACGTGGTTTG,0.24 kcal/mol
2,GGTGCCACGTGAGAGG,0.14 kcal/mol
3,GCAGGCACGTGGTGAT,-0.26 kcal/mol
4,GTTGACACGTGTACGT,0.13 kcal/mol
5,GGAAGCACGTGTTTTT,-0.06 kcal/mol
6,GAGTGCACGTGATTCG,0.24 kcal/mol
7,ATGCTCACGTGTTTAG,0.22 kcal/mol
8,ACGTACACGTGGGATG,0 kcal/mol
9,GTGTTCACGTGGAGTG,0.36 kcal/mol
10,GGGATCACGTGCGATG,0.14 kcal/mol
11,AGAAACACGTGGGGGG,-0.09 kcal/mol
12,TTCCTCACGTGGTAGT,0.18 kcal/mol
13,CATTTCACGTGTGGTA,0.24 kcal/mol
14,TTTAGCACGTGGATGT,-0.12 kcal/mol
15,TACGACACGTGGTTTT,0.01 kcal/mol
16,GAAGGCACGTGGGGGT,-0.19 kcal/mol
17,TGCATCACGTGGTAAT,0.08 kcal/mol
18,TGCTTCACGTGGACTG,0.29 kcal/mol
19,TACGGCACGTGGGTGA,-0.15 kcal/mol
20,AATAGCACGTGTTAGT,-0.08 kcal/mol
21,AGAGTCACGTGAGTTT,0.33 kcal/mol
22,GTTGGCACGTGGTGTG,-0.1 kcal/mol
23,AGAGGCACGTGCAGTG,-0.03 kcal/mol

row,Sequence,relative binding free energy
1,AATTTCACGTGTCGAT,0.41 kcal/mol
2,GTATTCACGTGCTGGT,0.2 kcal/mol
3,ATACTCACGTGAGTTA,0.35 kcal/mol
4,ATGTTCACGTGGTTCT,0.15 kcal/mol
5,GAGGGCACGTGTAAAA,0.21 kcal/mol
6,TGATACACGTGAGGTA,0.2 kcal/mol
7,TTAGCCACGTGATGGG,0.06 kcal/mol
8,AATTGCACGTGAATGT,0.11 kcal/mol
9,TGATTCACGTGTAACA,0.47 kcal/mol
10,GGGCGCACGTGAGTTA,0.13 kcal/mol
11,TTAGTCACGTGGTGAT,-0.05 kcal/mol
12,TATTGCACGTGGCGGA,-0.1 kcal/mol
13,GGGTGCACGTGGGCAA,-0.12 kcal/mol
14,TACGACACGTGTGTAG,0.14 kcal/mol
15,TTGTTCACGTGTGGTG,0.25 kcal/mol
16,ACTGACACGTGTATGG,0.1 kcal/mol
17,TTTATCACGTGGGATA,0.12 kcal/mol
18,GGGAACACGTGGTCAG,0.18 kcal/mol
19,GAGAGCACGTGGACGG,0.07 kcal/mol
20,GTGGTCACGTGGGGTT,0.08 kcal/mol
21,AATGCCACGTGTATTG,-0.03 kcal/mol
22,CTTGGCACGTGGTCCG,-0.17 kcal/mol
23,CCAGGCACGTGGGGGG,-0.15 kcal/mol

row,Sequence,relative binding free energy
1,TTGGACACGTGGACTT,0.12 kcal/mol
2,GTCATCACGTGGATTT,0.04 kcal/mol
3,TATATCACGTGCTTGG,0.13 kcal/mol
4,TTTTGCACGTGGCTTT,-0.17 kcal/mol
5,GGATTCACGTGGTAAA,0.15 kcal/mol
6,CATGGCACGTGGGAAT,-0.03 kcal/mol
7,ACCGGCACGTGTGGTG,0.05 kcal/mol
8,GGGTCCACGTGGTCGG,-0.08 kcal/mol
9,TTGCACACGTGGCTGT,0.01 kcal/mol
10,TGTAGCACGTGCCGGT,-0.26 kcal/mol
11,GCAATCACGTGTGGCG,0.37 kcal/mol
12,TATGTCACGTGTGTTC,0.11 kcal/mol
13,TACGTCACGTGTAGGT,0.08 kcal/mol
14,AATTACACGTGGTTTC,0.21 kcal/mol
15,TTCGGCACGTGATTGT,-0.02 kcal/mol
16,GGATTCACGTGCAGGG,0.33 kcal/mol
17,TGAAACACGTGGGTGA,0.08 kcal/mol
18,TGTTCCACGTGTAGGC,0.06 kcal/mol
19,GTCGGCACGTGGGAGT,-0.1 kcal/mol
20,AAGGGCACGTGGGTTC,-0.12 kcal/mol
21,TTTTACACGTGTTCGG,0.08 kcal/mol
22,TTCGGCACGTGCAGGG,-0.05 kcal/mol
23,GTATTCACGTGTGACG,0.32 kcal/mol

row,Sequence,relative binding free energy
1,CTGTTCACGTGTAAGT,0.3 kcal/mol
2,TTATACACGTGGTATT,0 kcal/mol
3,GGTTTCACGTGGATGG,0.35 kcal/mol
4,CGTTGCACGTGGTGTT,-0.03 kcal/mol
5,TTAGACACGTGTCTTG,0.05 kcal/mol
6,GGTCGCACGTGAAAGT,0.24 kcal/mol
7,GGTGACACGTGGCGCA,0.03 kcal/mol
8,TCTGTCACGTGAATGT,0.23 kcal/mol
9,TGAGGCACGTGAAGTA,0.24 kcal/mol
10,TCAGGCACGTGTCGGT,-0.09 kcal/mol
11,GTGTGCACGTGAGGAA,0.26 kcal/mol
12,GGAAACACGTGGTTTG,0 kcal/mol
13,AAATTCACGTGGGTGG,0.17 kcal/mol
14,ATGTTCACGTGTGACT,0.37 kcal/mol
15,ACAGTCACGTGAAAGG,0.33 kcal/mol
16,CTTGGCACGTGAGTGA,0.12 kcal/mol
17,CATTTCACGTGTTAGA,0.4 kcal/mol
18,GTTTGCACGTGAAATG,0.22 kcal/mol
19,GTATTCACGTGTGAGA,0.37 kcal/mol
20,TTCTACACGTGTGGGG,0.26 kcal/mol
21,GTTGACACGTGTCTTG,0.12 kcal/mol
22,ATTTTCACGTGTCAGT,0.27 kcal/mol
23,TTTCTCACGTGGCGGT,0.27 kcal/mol

row,Sequence,relative binding free energy
1,GTGTCCACGTGAGAGT,0.18 kcal/mol
2,AAGGTCACGTGGGAAA,0.23 kcal/mol
3,GGAAACACGTGCGGGG,0 kcal/mol
4,AGTAGCACGTGGAATA,0.11 kcal/mol
5,TGTGGCACGTGATGTG,0.04 kcal/mol
6,GGGCTCACGTGTTTTG,0.18 kcal/mol
7,TTGGCCACGTGTTTCT,0.09 kcal/mol
8,GGGGTCACGTGTGTGT,0.18 kcal/mol
9,TTACGCACGTGTGAGG,-0.1 kcal/mol
10,TTTATCACGTGGATGC,0.21 kcal/mol
11,ATTGTCACGTGCTGTA,-0.04 kcal/mol
12,TTATACACGTGGTCTA,-0.07 kcal/mol
13,GCATACACGTGTTGGG,0.06 kcal/mol
14,AGGAACACGTGGTCGG,0.05 kcal/mol
15,CCTGTCACGTGATGTG,0.11 kcal/mol
16,TTTACCACGTGGGGAG,-0.07 kcal/mol
17,ATCGGCACGTGTGAAA,0.16 kcal/mol
18,TTTTGCACGTGTGTTC,0.07 kcal/mol
19,TGTGCCACGTGCGGTT,-0.13 kcal/mol
20,GTTACCACGTGTTTGG,-0.1 kcal/mol
21,TGGAGCACGTGATGTA,0.1 kcal/mol
22,AGGGACACGTGGGTTC,-0.05 kcal/mol
23,GAAGTCACGTGATTGT,0.22 kcal/mol
